Laboratory results reported in patent US20150064697A1 (priority 2012, published 2015).

System: caspases 3 and 7 in p53-WT and p53-null MEFs
Assay: Caspase-3,7 activity assay (Ac-DEVD-AMC)
Settings: 1 μM doxorubicin 16 hours

COc1cccc2c1C(=O)c1c(O)c3c(c(O)c1C2=O)C[C@@](O)(C(=O)CO)C[C@@H]3O[C@H]1C[C@H](N)[C@H](O)[C@H](C)O1 [doxorubicin]
caspase 3 and 7 levels, p53-WT vs p53-null MEFs: higher levels of caspases 3 and 7 in p53-WT than in p53-null MEFs
